The text below walks through data of PMC9911399, “Two distinct binding modes provide the RNA-binding protein RbFox with extraordinary sequence specificity”.

Numbering of substitutions follows the chain as printed; changes in the protein carry UniProt numbers. The list shows a part of the results.

T1: RBFOX1 RRM (Homo sapiens, UniProt Q9NWB1 109-208)
T1 sequence: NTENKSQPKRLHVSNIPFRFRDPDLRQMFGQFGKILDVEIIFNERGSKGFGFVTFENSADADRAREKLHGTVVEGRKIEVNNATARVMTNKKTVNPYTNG

B1: CUCAGGA (DNA:RNA)
RNA: GGGAGACCGGAAUUCAGAUUGUCCCUCAGGAUUAAAUCCCGUCGUAGCCACCA
DNA 1: CAATCTGAATTCCGGTCTCCC
DNA 2: TGGTGGCTACGACGGGATT
B2: CAUCUCA (DNA:RNA)
RNA: B1 RNA with U26A, C27U, A28C, G29U, G30C
DNA 1: CAATCTGAATTCCGGTCTCCC
DNA 2: TGGTGGCTACGACGGGATT
B3: CCUACCC (DNA:RNA)
RNA: B1 RNA with U26C, C27U, G29C, G30C, A31C
DNA 1: CAATCTGAATTCCGGTCTCCC
DNA 2: TGGTGGCTACGACGGGATT
B4: GCAGCAU (DNA:RNA)
RNA: GGGAGACCGGAAUUCAGAUUGUCCGCAGCAUUUAAAUCCCGUCGUAGCCACCA
DNA 1: CAATCTGAATTCCGGTCTCCC
DNA 2: TGGTGGCTACGACGGGATT
B5: UCAUAGU (DNA:RNA)
RNA: B4 RNA with G25U, G28U, C29A, A30G
DNA 1: CAATCTGAATTCCGGTCTCCC
DNA 2: TGGTGGCTACGACGGGATT
B6: UACCUCA (DNA:RNA)
RNA: B1 RNA with C25U, U26A, A28C, G29U, G30C
DNA 1: CAATCTGAATTCCGGTCTCCC
DNA 2: TGGTGGCTACGACGGGATT
B7: AAAGUAU (DNA:RNA)
RNA: B4 RNA with G25A, C26A, C29U
DNA 1: CAATCTGAATTCCGGTCTCCC
DNA 2: TGGTGGCTACGACGGGATT
B8: UAGACUC (DNA:RNA)
RNA: B1 RNA with C25U, U26A, C27G, G29C, G30U, A31C
DNA 1: CAATCTGAATTCCGGTCTCCC
DNA 2: TGGTGGCTACGACGGGATT
B9: UUCCUGC (DNA:RNA)
RNA: B1 RNA with C25U, A28C, G29U, A31C
DNA 1: CAATCTGAATTCCGGTCTCCC
DNA 2: TGGTGGCTACGACGGGATT
B10: CACCUGC (DNA:RNA)
RNA: B1 RNA with U26A, A28C, G29U, A31C
DNA 1: CAATCTGAATTCCGGTCTCCC
DNA 2: TGGTGGCTACGACGGGATT
B11: CGUCACA (DNA:RNA)
RNA: B1 RNA with U26G, C27U, A28C, G29A, G30C
DNA 1: CAATCTGAATTCCGGTCTCCC
DNA 2: TGGTGGCTACGACGGGATT
B12: CCGUUAC (DNA:RNA)
RNA: B4 RNA with G25C, A27G, G28U, C29U, U31C
DNA 1: CAATCTGAATTCCGGTCTCCC
DNA 2: TGGTGGCTACGACGGGATT
B13: AGUCCUA (DNA:RNA)
RNA: B1 RNA with C25A, U26G, C27U, A28C, G29C, G30U
DNA 1: CAATCTGAATTCCGGTCTCCC
DNA 2: TGGTGGCTACGACGGGATT
B14: GGACCGA (DNA:RNA)
RNA: B4 RNA with C26G, G28C, A30G, U31A
DNA 1: CAATCTGAATTCCGGTCTCCC
DNA 2: TGGTGGCTACGACGGGATT
B15: ACUGCCU (DNA:RNA)
RNA: B4 RNA with G25A, A27U, A30C
DNA 1: CAATCTGAATTCCGGTCTCCC
DNA 2: TGGTGGCTACGACGGGATT
B16: AAAAUGG (DNA:RNA)
RNA: B1 RNA with C25A, U26A, C27A, G29U, A31G
DNA 1: CAATCTGAATTCCGGTCTCCC
DNA 2: TGGTGGCTACGACGGGATT
B17: UCGUUUC (DNA:RNA)
RNA: B4 RNA with G25U, A27G, G28U, C29U, A30U, U31C
DNA 1: CAATCTGAATTCCGGTCTCCC
DNA 2: TGGTGGCTACGACGGGATT
B18: UGUCGCU (DNA:RNA)
RNA: B1 RNA with C25U, U26G, C27U, A28C, G30C, A31U
DNA 1: CAATCTGAATTCCGGTCTCCC
DNA 2: TGGTGGCTACGACGGGATT
B19: UCUCAUA (DNA:RNA)
RNA: B1 RNA with C25U, U26C, C27U, A28C, G29A, G30U
DNA 1: CAATCTGAATTCCGGTCTCCC
DNA 2: TGGTGGCTACGACGGGATT
B20: AUCGAAC (DNA:RNA)
RNA: B1 RNA with C25A, A28G, G29A, G30A, A31C
DNA 1: CAATCTGAATTCCGGTCTCCC
DNA 2: TGGTGGCTACGACGGGATT
B21: CUUACGU (DNA:RNA)
RNA: B1 RNA with C27U, G29C, A31U
DNA 1: CAATCTGAATTCCGGTCTCCC
DNA 2: TGGTGGCTACGACGGGATT
B22: UUAACUG (DNA:RNA)
RNA: B1 RNA with C25U, C27A, G29C, G30U, A31G
DNA 1: CAATCTGAATTCCGGTCTCCC
DNA 2: TGGTGGCTACGACGGGATT
B23: UUGUCUA (DNA:RNA)
RNA: B1 RNA with C25U, C27G, A28U, G29C, G30U
DNA 1: CAATCTGAATTCCGGTCTCCC
DNA 2: TGGTGGCTACGACGGGATT
B24: UCGCCUG (DNA:RNA)
RNA: B4 RNA with G25U, A27G, G28C, A30U, U31G
DNA 1: CAATCTGAATTCCGGTCTCCC
DNA 2: TGGTGGCTACGACGGGATT
B25: AUGGCCA (DNA:RNA)
RNA: B1 RNA with C25A, C27G, A28G, G29C, G30C
DNA 1: CAATCTGAATTCCGGTCTCCC
DNA 2: TGGTGGCTACGACGGGATT
B26: AACCAGU (DNA:RNA)
RNA: B1 RNA with C25A, U26A, A28C, G29A, A31U
DNA 1: CAATCTGAATTCCGGTCTCCC
DNA 2: TGGTGGCTACGACGGGATT
B27: UGGCCUU (DNA:RNA)
RNA: B4 RNA with G25U, C26G, A27G, G28C, A30U
DNA 1: CAATCTGAATTCCGGTCTCCC
DNA 2: TGGTGGCTACGACGGGATT
B28: UCGUUGC (DNA:RNA)
RNA: B1 RNA with C25U, U26C, C27G, A28U, G29U, A31C
DNA 1: CAATCTGAATTCCGGTCTCCC
DNA 2: TGGTGGCTACGACGGGATT
B29: AUGGGUG (DNA:RNA)
RNA: B1 RNA with C25A, C27G, A28G, G30U, A31G
DNA 1: CAATCTGAATTCCGGTCTCCC
DNA 2: TGGTGGCTACGACGGGATT
B30: ACCAAGG (DNA:RNA)
RNA: B1 RNA with C25A, U26C, G29A, A31G
DNA 1: CAATCTGAATTCCGGTCTCCC
DNA 2: TGGTGGCTACGACGGGATT
B31: CAGAUGC (DNA:RNA)
RNA: B1 RNA with U26A, C27G, G29U, A31C
DNA 1: CAATCTGAATTCCGGTCTCCC
DNA 2: TGGTGGCTACGACGGGATT

For this assay, the target named is T1, RBFOX1 RRM. Description: EMSA; HiTS-Eq, 1 nM pool, 10 min; buffer printed only for the single-RNA assays: 10 mM Tris pH 7.5, 150 mM NaCl, 3.4 mM EDTA, 0.001% NP-40, 30 C. The settings on record: tags: His6 N-terminal (pET28a); label: 5' 32P. Summed up:
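Purified RbFox RRM (wild type or mutant) was equilibrated for 10 min in 50 µL with 1 nM of a 5′-radiolabelled pool of RNA with 7 randomized nucleotides, its flanks annealed to DNA oligonucleotides, across increasing protein concentrations. Free RNA was separated by 8% native PAGE, excised, reverse-transcribed, PCR-barcoded and sequenced on an Illumina HiSeq 2500. Relative association constants came from read-count changes of each variant against the control reaction, normalised to the cognate motif.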
(In general: A gel shift assay detects complexes by their altered migration in electrophoresis.)
Turning to B1, the binding signal was 0.0101 KA relative to UGCAUGU.

B2: the binding signal was 0.00219 KA relative to UGCAUGU.

On to B3, for which the binding signal was 0.00331 KA relative to UGCAUGU.

As to B4, the binding signal was 0.0149 KA relative to UGCAUGU.

B5: the binding signal was 0.00577 KA relative to UGCAUGU.

With B6, the binding signal was 0.000227 KA relative to UGCAUGU.

As for B7, the binding signal was 0.00169 KA relative to UGCAUGU.

B8: the binding signal is 0.00599 KA relative to UGCAUGU.

Regarding B9, the binding signal was 0.0123 KA relative to UGCAUGU.

Regarding B10, the binding signal is 0.00791 KA relative to UGCAUGU.

In the case of B11, the binding signal was 0.00392 KA relative to UGCAUGU.

B12: the binding signal was 0.00473 KA relative to UGCAUGU.

For the molecule B13, the binding signal was 0.00193 KA relative to UGCAUGU.

For the molecule B14, the binding signal was 0.0139 KA relative to UGCAUGU.

As for B15, the binding signal is 0.00954 KA relative to UGCAUGU.

Regarding B16, the binding signal is 0.0053 KA relative to UGCAUGU.

In the case of B17, the binding signal is 0.0147 KA relative to UGCAUGU.

Regarding B18, the binding signal was 0.0213 KA relative to UGCAUGU.

As to B19, the binding signal was 0.00153 KA relative to UGCAUGU.

With B20, the binding signal is 0.00375 KA relative to UGCAUGU.

With B21, the binding signal was 0.00661 KA relative to UGCAUGU.

On to B22, for which the binding signal is 0.0153 KA relative to UGCAUGU.

In the case of B23, the binding signal was 0.0137 KA relative to UGCAUGU.

On to B24, for which the binding signal was 0.0246 KA relative to UGCAUGU.

For B25, the binding signal was 0.0113 KA relative to UGCAUGU.

With B26, the binding signal is 0.000945 KA relative to UGCAUGU.

On to B27, for which the binding signal was 0.0212 KA relative to UGCAUGU.

Regarding B28, the binding signal was 0.0227 KA relative to UGCAUGU.

Consider B29, for which the binding signal was 0.02 KA relative to UGCAUGU.

Take B30: the binding signal was 0.00614 KA relative to UGCAUGU.

Consider B31, for which the binding signal is 0.0101 KA relative to UGCAUGU.
